# PubChem BioAssay AID938 (National Center for Advancing Translational Sciences (NCATS), 2007)
# Hit rate of the full screen: of about 73,000 compounds, about 1,800 (2.5%) were called active. The inconclusive results got no clear call from the source; some entries with a clear call stand among them for comparison. Calls come from the whole dose curve; as a rule, active = well fitted activation curve with a large enough effect; inconclusive = small, poorly fitted or top-dose-only effect; inactive = no such curve, though single readings can be large or run the other way. No potency is given beside an inconclusive call; the fits are too rough.
# Assay: qHTS Assay for Agonists of the Thyroid Stimulating Hormone Receptor: Activators of Intracellular cAMP Concentrations in Parental HEK 293; note: nearly all actives have a fitted effect of over 55% in size; for activation: % of control where 0% means no effect
# Conditions: parental HEK293 CNG cAMP sensor, membrane potential fluorescence; activation: at 57.1 µM (top of the series) unless noted
# In short: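 Parental HEK 293 cells stably expressing a modified CNG channel (no TSHR) report cAMP rise as membrane depolarization. Membrane potential dye with 100 uM RO 20-1724 was loaded for 60 min at room temperature, then compound added for 30 min; fluorescence read at 590 nm.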
# Potency is the fitted concentration of half-maximal effect; tags give direction and shape of the fitted curve.
Structure (SMILES),Potency,activation
COCCn1nnnc1C(C(C)C)N(Cc1ccccc1)Cc1cc2cc(OC)ccc2[nH]c1=O (configuration not stated),"inconclusive [activator, single point]",
CC1Cc2ccccc2C(=O)N1 (configuration not stated),"inconclusive [activator, single point]",
OC(COc1cccc2ccccc12)CN1CCN(c2ccccn2)CC1 (configuration not stated),"inconclusive [activator, partial curve]",
COc1ccc(NC2CC(=O)N(c3cccc(C)c3)C2=O)cc1 (configuration not stated),"inconclusive [activator, single point]",
Cc1ccc2c(c1)[nH]c1c(N3CCN(Cc4ccc5c(c4)OCO5)CC3)ncnc12,"inconclusive [activator, single point]",
Cc1sc(NC(=O)CSc2nnc(C)c(=O)[nH]2)c(C#N)c1C,"inconclusive [activator, single point]",
CCOC(=O)c1cccc(NC(=O)CN2C(=O)C3C4C=CC(C4)C3C2=O)c1 (configuration not stated),inactive,
CC(C)NC(=O)N1CC[C@@]2(CCCN(S(C)(=O)=O)C2)C1,"inconclusive [activator, partial curve]",
CCSc1nc2c(cnn2-c2ccc(C)cc2)c(=O)[nH]1,inactive,
COc1ccc2c(-c3ccccc3)cc3nnnn3c2c1,"inconclusive [activator, single point]",
OCC12COC(c3ccccc3)N1C(c1ccccc1)OC2 (configuration not stated),inactive,
CCc1c2c(nc3c(C(C)C)cccc13)-c1cccc(=O)n1C2,active: 25.1 µM,
O=C(O)CSc1nnc(CNc2ccccc2Cl)n1-c1ccccc1,"inconclusive [activator, single point]",
Nc1nc(N)c2nn(-c3ccc(C(=O)O)cc3)nc2n1,,inactive: -1.98% [at 11.4 µM]
NCC(=O)Nc1ccccc1,"inconclusive [activator, single point]",
Cc1cc(C(=O)CN2C(=O)NC3(CCCCC3)C2=O)c(C)n1Cc1ccc2c(c1)OCO2,"inconclusive [activator, single point]",
CCCCCCNC(=O)C(C(=O)OCC)C1CCCCC1 (configuration not stated),"inconclusive [activator, partial curve]",
O=C(Nc1cccc(F)c1)c1cccc(S(=O)(=O)N2CCOCC2)c1,inactive,
CN1CCCC[C@@H]1CCN1c2ccccc2Sc2ccc(S(C)=O)cc21 (some centres not stated),"inconclusive [activator, partial curve, poor fit]",
CCCCOCCCNC(=O)Cc1cccs1,active: 1.58 µM,
COCC(=O)N1CCC[C@@]2(CCN(c3ccncc3)C2)C1,inactive,
CCC(C(=O)N1CCc2cc(OC)c(OC)cc2C1)c1ccccc1 (configuration not stated),"inconclusive [activator, partial curve]",
CC(=O)Nc1cccc(Cn2cccn2)c1,active: 20 µM,
COCCn1c(=O)c(CCc2ccccc2)nc2cnc(N(C)C)nc21,"inconclusive [activator, partial curve]",

Structure (SMILES),Potency,activation
Cn1c(N2CCCCC2)nc2c1c(=O)n(Cc1cccc(Br)c1)c(=O)n2C,"inconclusive [activator, single point]",
Cc1ccc(C2CC(c3ccccc3OC(F)F)Nc3ncnn32)cc1 (configuration not stated),"inconclusive [activator, single point]",
O=C(/C=C\c1ccc(O)c(O)c1)OCCc1ccccc1,"inconclusive [activator, single point]",
c1ccc(-c2nc(NC3CC3)nc(-n3ccnc3)n2)cc1,inactive,
Cc1nn(-c2ccc(C(=O)O)cc2)c(N)c1-c1ccccc1,inactive,
CCCc1cc(=O)n2[nH]c(-c3ccccc3)cc2n1,inactive,
O=C1CC(c2ccco2)CC2=C1C(c1ccccc1)n1nc(C(F)(F)F)nc1N2 (configuration not stated),inactive,
O=C1c2ccccc2OCOc2ccccc21,"inconclusive [activator, single point]",
O=C(NC(C(=O)c1ccccc1)N1CCOCC1)c1ccccc1 (configuration not stated),"inconclusive [activator, single point]",
CCn1c(SCC(=O)N2CCCc3ccccc32)nc2ccccc2c1=O,active: 10 µM,
CN1C(=O)C2(Nc3ccccc3-c3nc4ccccc4n32)c2ccccc21 (configuration not stated),inactive,
Nc1ccc(CCNc2ncnc3c2ncn3[C@@H]2O[C@@H](CO)[C@H](O)[C@@H]2O)cc1,"inconclusive [activator, single point]",
CCN(CC)C(=O)c1sc2nc(-c3ccccn3)[nH]c(=O)c2c1C,"inconclusive [activator, single point]",
COC(=O)[C@@]1(Cc2ccc(OC)cc2)[C@H]2c3cc(C(=O)N4CCCC4)n(CCSCCO)c3C[C@H]2CN1C(=O)c1ccccc1,"inconclusive [activator, single point]",
COc1ccc(NC(=O)c2ccco2)cc1NC(=O)c1cccc(OC(C)C)c1,"inconclusive [activator, single point]",
COc1ccc(-c2cc(C(F)(F)F)nc(SCCC(=O)N3CCN4CCCC4C3)n2)cc1 (configuration not stated),"inconclusive [activator, single point]",
CC[C@@H]1[C@H]2CCCCN3[C@@H]2[C@@H](C[C@H]3[C@@H]2C[C@H](C)C(=O)O2)[C@@H]2[C@H]1OC(=O)[C@H]2C,inactive,
O=C(OCC(=O)N1CCN(C(=O)c2ccco2)CC1)c1sc2ccccc2c1Cl,inactive,
CC(C)Cn1c(Br)nc2c1c(=O)n(CCC#N)c(=O)n2C,"inconclusive [activator, single point]",
Cc1cccc(NC(=O)CN2C(=O)COc3ccc(Cl)cc32)c1,inactive,
O=C(Nc1cnn(Cc2ccccc2)c1)c1cc2nc(-c3ccco3)cc(C(F)(F)F)n2n1,inactive,
COCCn1nnnc1C(c1ccccc1Cl)N1CCN(c2ccccc2OC)CC1 (configuration not stated),"inconclusive [activator, partial curve]",
c1ccc2c(NCCN3CCOCC3)nc(-c3ccoc3)nc2c1,"inconclusive [activator, partial curve]",
